Patent US9763922B2 (priority 2014, dated 2017)

Assays:
[1] = target: BRD4 BD1 (Homo sapiens (Human), UniProt O60885); conditions: read-out: BRD4 Alpha IC50
[2] = system: MYC; test: cells; conditions: Homo sapiens, MV4-11, 4 h, read-out: Myc IC50 (μM)

SMILES	IC50 [1] [nM]	IC50 [2] [µM]
CC(=O)N1CCc2c(c(Nc3cccc(-c4cnn(C)c4)c3)nn2CC2COC2)C1 [Example 86, 1-[3-[3-(hydroxymethyl)-6-(1-methylpyrazol-4-yl)-3,4-dihydro-2H-quinolin-1-yl]-1-tetrahydrofuran-3-yl-6,7-dihydro-4H-pyrazolo[4,3-c]pyridin-5-yl]ethanone]	2720	0.44
CC(=O)N1CCc2c(c(Nc3ccc(-c4cccc(CO)c4)cc3)nn2CC2CC2)C1 [Example 92, 1-[3-[3-(methoxymethyl)-6-(1-methylpyrazol-4-yl)-3,4-dihydro-2H-quinolin-1-yl]-1-tetrahydrofuran-3-yl-6,7-dihydro-4H-pyrazolo[4,3-c]pyridin-5-yl]ethanone]	3990	0.35
CC(=O)N1CCc2c(c(Nc3cc(-c4cnn(C)c4)ccc3F)nn2C2CCOC2)C1 (stereo not shown) [Example 292, 1-[3-[2-fluoro-5-(1-methylpyrazol-4-yl)anilino]-1-tetrahydrofuran-3-yl-6,7-dihydro-4H-pyrazolo[4,3-c]pyridin-5-yl]ethanone]	3400	0.56
CC(=O)N1CCc2c(c(Nc3c(F)ccc(-c4cnn(C)c4)c3F)nn2[C@H]2CCOC2)C1 [Example 280, (S)-1-[3-[2,6-difluoro-3-(1-methylpyrazol-4-yl)anilino]-1-tetrahydrofuran-3-yl-6,7-dihydro-4H-pyrazolo[4,3-c]pyridin-5-yl]ethanone]	8010	0.46
CC(=O)N1CCc2c(c(Nc3cccc(C(F)(F)F)c3)nn2CC2CC2)C1 [Example 223, 1-[3-[N-benzyl-4-(1-methylpyrazol-4-yl)anilino]-1-[(3S)-tetrahydrofuran-3-yl]-6,7-dihydro-4H-pyrazolo[4,3-c]pyridin-5-yl]ethanone]	5110	0.5
CC(=O)N1CCc2c(c(Nc3cccc(C(=O)NC4CC4)c3)nn2CC2CC2)C1 [Example 221, 1-[3-[4-methyl-5-(1-methylpyrazol-4-yl)indolin-1-yl]-1-tetrahydrofuran-3-yl-6,7-dihydro-4H-pyrazolo[4,3-c]pyridin-5-yl]ethanone]	6180	0.41
CNC(=O)N1CCc2c(c(Nc3cc(C(F)F)c(-c4cnn(C)c4)cc3F)nn2C2CCOCC2)C1 [Example 260, 3-[7-ethyl-6-(1-methylpyrazol-4-yl)-3,4-dihydro-2H-quinolin-1-yl]-N-methyl-1-tetrahydropyran-4-yl-6,7-dihydro-4H-pyrazolo[4,3-c]pyridine-5-carboxamide]	11700	0.03
CC(=O)N1CCc2c(c(Nc3cccc(C)c3)nn2C(C)C)C1 [Example 200, 1-[3-[3-ethyl-5-(1-methylpyrazol-4-yl)indolin-1-yl]-1-tetrahydrofuran-3-yl-6,7-dihydro-4H-pyrazolo[4,3-c]pyridin-5-yl]ethanone]	15800	1.48
CC(=O)N1CCc2c(c(Nc3cccc(-c4ccccn4)c3)nn2CC2CC2)C1 [Example 79, 1-[3-[6-(1-methylpyrazol-4-yl)-3,4-dihydro-2H-quinolin-1-yl]-1-(1-methylpyrrolidin-3-yl)-6,7-dihydro-4H-pyrazolo[4,3-c]pyridin-5-yl]ethanone]	2020	0.77
CC(=O)N1CCc2c(c(Nc3cc(C(F)F)c(-c4cnn(C)c4)cc3F)nn2C2COC2)C1 [Example 224, 1-[1-methyl-3-[N-methyl-4-[1-methyl-3-(trifluoromethyl)pyrazol-4-yl]anilino]-6,7-dihydro-4H-pyrazolo[4,3-c]pyridin-5-yl]ethanone]	3460	0.69
CC(=O)N1CCc2c(c(Nc3c(F)ccc(-c4cnn(C)c4)c3F)nn2C2CCOC2)C1 (stereo not shown) [Example 279, 1-[3-[2,6-difluoro-3-(1-methylpyrazol-4-yl)anilino]-1-tetrahydrofuran-3-yl-6,7-dihydro-4H-pyrazolo[4,3-c]pyridin-5-yl]ethanone]	8260	0.34
CC(=O)N1CCc2c(c(Nc3ccc(-c4cn(C)nc4C(F)(F)F)cc3)nn2C)C1 [Example 112, (S, R)-1-[3-[4-methyl-6-(1-methylpyrazol-4-yl)-3,4-dihydro-2H-quinolin-1-yl]-1-tetrahydrofuran-3-yl-6,7-dihydro-4H-pyrazolo[4,3-c]pyridin-5-yl]ethanone]	2200	0.18
CC(=O)N1CCc2c(c(Nc3ccc(-c4cccnc4OC(C)C)cc3)nn2C)C1 [Example 159, 3-[7-cyano-6-(1-methylpyrazol-4-yl)-3,4-dihydro-2H-quinolin-1-yl]-N-methyl-1-tetrahydropyran-4-yl-6,7-dihydro-4H-pyrazolo[4,3-c]pyridine-5-carboxamide]	2630	1.89
CC(=O)N1CCc2c(c(Nc3cc(F)c(F)c(-c4cnn(C)c4)c3)nn2C2CCOC2)C1 (stereo not shown) [Example 296, 1-[3-[3,4-difluoro-5-(1-methylpyrazol-4-yl)anilino]-1-tetrahydrofuran-3-yl-6,7-dihydro-4H-pyrazolo[4,3-c]pyridin-5-yl]ethanone]	1930	0.48
CC(=O)N1CCc2c(c(Nc3ccc(-c4cn[nH]c4)cc3)nn2CC2CC2)C1 [Example 98, 1-(3-((4-(1H-pyrazol-4-yl)phenyl)amino)-1-(cyclopropylmethyl)-6,7-dihydro-1H-pyrazolo[4,3-c]pyridin-5(4H)-yl)ethanone]	4420	0.2
CC(=O)N1CCc2c(c(Nc3ccc(F)c(-c4cnn(C)c4)c3)nn2C2CCOC2)C1 (stereo not shown) [Example 288, 1-[3-[4-fluoro-3-(1-methylpyrazol-4-yl)anilino]-1-tetrahydrofuran-3-yl-6,7-dihydro-4H-pyrazolo[4,3-c]pyridin-5-yl]ethanone]	2330	0.57
CC(=O)N1CCc2c(c(Nc3ccc(-c4cc[nH]n4)cc3)nn2C)C1 [Example 169, 1-[1-methyl-3-[5-(1-methylpyrazol-4-yl)indolin-1-yl]-6,7-dihydro-4H-pyrazolo[4,3-c]pyridin-5-yl]ethanone]	11700	1.05
CC(=O)N1CCc2c(c(Nc3ccc(-c4cnn(C)c4)c(F)c3)nn2C(C)CO)C1 (stereo not shown) [Example 275, 3-[6-cyano-7-(1-methylpyrazol-4-yl)-2,3-dihydro-1,4-benzoxazin-4-yl]-N-methyl-1-tetrahydropyran-4-yl-6,7-dihydro-4H-pyrazolo[4,3-c]pyridine-5-carboxamide]	4890	0.27
CNC(=O)N1CCc2c(c(Nc3ccc(-c4cnn(C)c4)c(F)c3F)nn2C2CCOCC2)C1 [Example 264, (R)-4-(5-acetyl-1-tetrahydropyran-4-yl-6,7-dihydro-4H-pyrazolo[4,3-c]pyridin-3-yl)-1,2-dimethyl-7-(l-methylpyrazol-4-yl)-2,3-dihydroquinoxaline-6-carbonitrile]	> 20000	0.95
CC(=O)N1CCc2c(c(Nc3ccc(-c4ccc(C)nc4)cc3)nn2C)C1 [Example 160, 3-[6-(1,5-dimethylpyrazol-4-yl)-3,4-dihydro-2H-quinolin-1-yl]-N-methyl-1-tetrahydropyran-4-yl-6,7-dihydro-4H-pyrazolo[4,3-c]pyridine-5-carboxamide]	3680	0.41
